Measured values as given in PubChem BioAssay AID2451 (National Center for Advancing Translational Sciences (NCATS), 2010).
Screen size: about 290,000 compounds; about 2,100 (0.72%) were called active. Inconclusive results (about 4%) are left out. Calls follow the shape of the dose curve; as a rule, active = well fitted inhibition curve with a large enough effect; inconclusive = small, poorly fitted or top-dose-only effect, or effect the other way; inactive = flat fitted curve, though single readings scatter. The list shows a part of the results, in another mix than the full data. Some compounds were tested as several samples or in several runs, with calls that do not always agree.

The compounds below were run against Fructose-bisphosphate aldolase (Giardia intestinalis (strain ATCC 50803 / WB clone C6)) (UniProt A8B2U2) (assay: qHTS Assay for Inhibitors of Fructose-1,6-bisphosphate Aldolase from Giardia Lamblia). Conditions: purified Giardia FBPA; series mostly up to 59.6 µM; activity, negative = inhibition: at the top concentration.
Chain of UniProt A8B2U2 (A8B2U2 whole entry, looked up): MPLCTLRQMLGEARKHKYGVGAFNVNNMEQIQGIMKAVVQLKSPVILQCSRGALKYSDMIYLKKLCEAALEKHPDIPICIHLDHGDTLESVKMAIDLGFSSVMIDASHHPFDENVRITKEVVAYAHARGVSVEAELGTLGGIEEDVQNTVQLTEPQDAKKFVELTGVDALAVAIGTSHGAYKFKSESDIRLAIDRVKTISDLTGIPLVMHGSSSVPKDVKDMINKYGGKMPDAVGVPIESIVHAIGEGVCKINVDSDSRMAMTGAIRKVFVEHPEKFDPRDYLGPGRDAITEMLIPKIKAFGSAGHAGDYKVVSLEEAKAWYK
From the text: Assay Provider: Osnat Herzberg, University of Maryland
The objective of this project is to obtain compounds that inhibit Giardia lamblia growth. G. lamblia is a human pathogen which afflicts impoverished nations; it is the most common cause of outbreaks of diarrhea in the United States. During the course of our study of potential drug targets in Giardia, we have identified the Class II (Zn2+ functions in electrophilic catalysis) fructose-1,6-bisphosphate aldolase (FBPA) as an excellent candidate for drug targeting. FBPA is a key glycolytic pathway enzyme, essential for G. lamblia survival. The human FBPA belongs to the Class I aldolases, which have a different substrate binding site structure and a radically different catalytic mechanism (employing a lysine-Schiff base intermediate). Therefore, affinity-based or mechanism-based inhibitors of the Giardia FBPA are expected not to interfere with the catalytic function of the human FBPA.
A glyceraldehyde-3-phosphate dehydrogenase/triose phosphate isomerase/NAD/arsenate coupled assay was adapted to the 1536-well HTP format for use in the primary screen. This was done by coupling it to a diaphorase/resazurin/resorufin reaction that can be monitored by fluorescence (excitation, 544 nm; emission, 590 nm). Compounds identified in this screen will be further evaluated by coupling the glycerol-3-phosphate/triose phosphate isomerase/NADH assay to a phenazine methosulfate/tetranitroblue tetrazolium color reaction. False positives due to the dehydrogenases and diaphorase inhibition will be eliminated, and selectivity assay will triage inhibitors of mammalian triose phosphate isomerase and the Class I FBPA. G. lamblia FBPA inhibitors identified by the in vitro analyses will be examined for growth inhibition of Giardia trophozoites, and for cytotoxicity in human cells.
Step,Parameter,Value,Description
1,Enzyme reagent,2 uL,40 nM FBPA
2,Compound,23 nL,3.68 nM-57.5 uM final concentration
3,Time,10 min,RT Incubation
4,Substrate/detection Reagent,2 uL,Substrate + enzyme coupling system + AmpLite Red kit
5,Time,20 min,RT Incubation
6,Detector,525 nm/598 nm (Fluorescence),ViewLux Fluorescence Read (Read 1)
1,Medium-binding black solid-bottom Kalypsys plates. FRD or Kalypsys dispenser, 2 uL of FBPA enzyme. Bottle kept at 4C.
2,Compound Library (10 mM ,1:5 dilution). Pin-transferred for a [final] range of 3.68 nM-57.5 uM.
4,FRD or Kalypsys dispenser, 2 uL of reaction mixture. Bottle kept at 4C and covered in foil to protect from light.
6,ViewLux Protocol 1194; Excitation filter wheel A (525/20 Pol; BODIPY TMR FP), Emission filter wheel B (598/25 S; BODIPY TMR FP S).
Keywords: Fructose-bisphosphate aldolase, FBPA , Giardia lamblia , Giardia, HTS, Inhibitors
% is scaled to controls: 0 for no effect and ±100 for the full control effect; potency is read from the fitted curve at half-maximal effect.
Also: nearly all actives have a fitted effect of over 55% in size.

Row | Compound | Potency | activity, negative = inhibition
1 | CN(CC(=O)NCc1ccccc1)Cc1cccc(F)c1 | active: 10 µM | 
2 | CN1CC(CNC(=O)OCc2ccccc2)CC2c3cccc4c3c(cn4C)CC21 (stereo unspecified) |  | inactive: -16.4%
3 | CC(=O)N/N=C/c1c(C)[nH]n(-c2ccccc2)c1=O | active: 15.8 µM | 
4 | CC(NC(=O)NNC(N)=S)(C(F)(F)F)C(F)(F)F | active: 17.7 µM | 
5 | CC(=O)NCCc1c[nH]c2ccc(O)cc12 |  | inactive: -21.7%
6 | CC(=O)N1CCC(=NNc2nc3ccccc3[nH]2)CC1 | active: 17.7 µM | 
7 | Oc1ccccc1CNc1cccc2cccnc12 | active: 6.29 µM | 
8 | CC(=O)N(O)CCCCCNC(=O)CCC(=O)N(O)CCCCCNC(=O)CCC(=O)N(O)CCCCCN | inactive | 
9 | COC(=O)/C=C1\N/C(=N\c2nc(C)cc(C)n2)N(c2ccc(Cl)cc2)C1=O |  | inactive: -6.44%
10 | CO[C@@]1(NC(=O)CSCC#N)C(=O)N2C(C(=O)O)=C(CSc3nnnn3C)CS[C@@H]21 | inactive | 
11 | CC1(OC(=O)C2CCCC2)C(=O)C=C2C=C(c3ccsc3)N(c3ccccc3)C=C2C1=O (stereo unspecified) |  | inactive: 7.2% [at 12.9 µM]
12 | COC(=O)c1c(NC(=O)C(C)(C)C)sc2c1CCN(Cc1ccccc1)C2 | active: 11.2 µM | 
13 | Cc1ccccc1NC1=C/C(=N\S(=O)(=O)c2ccc(C(=O)O)cc2)c2ccccc2C1=O | active: 0.794 µM | 
14 | O=C(/C=C/c1ccccc1)Oc1cccc2cccnc12 |  | inactive: -21.2%
15 | CC[C@@H]1CN2CCc3cc(OC)c(OC)cc3[C@H]2C[C@@H]1C[C@H]1NCCc2cc(OC)c(OC)cc21 |  | inactive: -1.18% [at 21.7 µM]
16 | O=c1c(O)c(-c2ccc(O)c(O)c2)oc2cc(O)ccc12 |  | inactive: -17%
17 | CCOc1ccc2c(c1)C(C)=CC(C)(C)N2 |  | inactive: -21.3%
18 | N#CCC(=O)Nn1c(=S)[nH]c2ccccc2c1=O | active: 3.54 µM | 
19 | CCC[C@@H]1C[C@@H](C(=O)NC(C(C)Cl)[C@H]2O[C@H](SC)[C@H](O)[C@@H](O)[C@H]2O)N(C)C1 (stereo partly specified) |  | inactive: -2.75%
20 | COc1cc(-c2ccc(N=Nc3ccc4c(S(=O)(=O)O)cc(S(=O)(=O)O)c(N)c4c3O)c(OC)c2)ccc1N=Nc1ccc2c(S(=O)(=O)O)cc(S(=O)(=O)O)c(N)c2c1O | active: 14.1 µM | 
21 | CN1CCN2c3ccccc3Cc3ccccc3[C@@H]2C1 |  | inactive: -4.77%
22 | COc1cc2c(cc1O)CC1c3c(cc(O)c(OC)c3-2)CCN1C (stereo unspecified) |  | inactive: -26%
23 | NS(=O)(=O)c1cccc2c1c([N+](=O)[O-])cc1nc(O)c(O)nc12 |  | inactive: -9.41%

Row | Compound | Potency | activity, negative = inhibition
24 | CN1C(C(=O)Nc2ccccn2)=C(O)c2sccc2S1(=O)=O |  | inactive: -15%
25 | C=CCN1C(=O)[C@]2(c3ccccc31)C1CCCC=C1C(C#N)=C(N)C2(C#N)C#N (stereo partly specified) |  | inactive: -23.6%
26 | COc1cccc2c1cc([N+](=O)[O-])c1c(C(=O)O)cc3c(c12)OCO3 |  | inactive: 6.84%
27 | CN(C)CCc1cc2c(c3c1ccc1ccccc13)OCO2 |  | inactive: -29.6%
28 | COC(=O)CCCC1=CC2=C(c3ccccc3)C(=O)C(C)(OC(=O)C3CCCC3)C(=O)C2=CN1C(CO)CO (stereo unspecified) |  | inactive: -23.1% [at 12.9 µM]
29 | CC1(OC(=O)C2CCCC2)C(=O)C=C2C=C3CCCCN3C=C2C1=O (stereo unspecified) |  | inactive: -29.4% [at 12.9 µM]
30 | COc1cc(/C=C(\C#N)C(=O)c2c[nH]c3ccccc23)cc(OC)c1O | active: 7.92 µM | 
31 | Nc1ccccc1C(=O)CC(N)C(=O)O (stereo unspecified) |  | inactive: -2.58%
32 | Cc1[nH][nH]c(=O)c1C(c1ccc(-c2ccc(C(=O)O)cc2)o1)c1c(C)[nH][nH]c1=O | active: 5.61 µM | 
33 | CC1=C(C(=O)O)N2C(=O)[C@@H](NC(=O)C(N)c3ccccc3)[C@H]2SC1 (stereo partly specified) |  | inactive: -1.64%
34 | Nc1nc2ncc(CNc3ccc(C(=O)NC(CCC(=O)O)C(=O)O)cc3)nc2c(=O)[nH]1 (stereo unspecified) | inactive | 
35 | S=C(Nc1ccccc1)c1ccccn1 |  | inactive: -0.34%
36 | CN(C)c1ccc(O)c2c1C[C@@H]1C[C@H]3C(N(C)C)C(=O)C(C(N)=O)=C(O)[C@@]3(O)C(=O)C1=C2O (stereo partly specified) |  | inactive: -29.6%
37 | O=C1NC(=O)C(c2ccccc2)(c2ccccc2)N1 | inactive | 
38 | CN[C@H](C)[C@H](O)c1ccccc1 |  | inactive: -6.28%
39 | Cc1ccc(/C=C2\C(=O)ON=C2c2ccccc2)o1 |  | inactive: -0.53%
40 | COc1ccc(C2=CC3=C(Br)C(=O)C(C)(OC(=O)c4ccco4)C(=O)C3=CO2)cc1 (stereo unspecified) |  | inactive: -9.69%
41 | C=CCN1C=C2C(=O)C(C)(OC(=O)CC)C(=O)C=C2C=C1CCCC (stereo unspecified) |  | inactive: -29.3% [at 12.9 µM]
42 | Cc1ccc(-n2c(=S)[nH]c3[nH]ncc3c2=O)cc1 | active: 15.8 µM | 
43 | N[C@H](C(=O)N[C@@H]1C(=O)N2C(C(=O)O)=C(Cl)CS[C@@H]12)c1ccccc1 |  | inactive: -19.8% [at 21.7 µM]
44 | CC(C)c1ccc2c(c1)c(SC(C)(C)C)c(CC(C)(C)C(=O)O)n2Cc1ccc(Cl)cc1 | inactive | 
45 | CCO[C@@H]1OC(C(=O)NCc2ccccc2)=C[C@H](c2ccc(Br)cc2)[C@H]1CCCO |  | inactive: 6.5%
46 | CC(C)[C@@]1(NC(=O)[C@@H]2C[C@H]3c4cccc5[nH]cc(c45)C[C@@H]3N(C)C2)O[C@]2(O)[C@H]3CCCN3C(=O)[C@H](Cc3ccccc3)N2C1=O |  | inactive: -1.86% [at 21.7 µM]
